# The list shows a part of the results.
# B1: Blon2468mut (Bifidobacterium longum) (protein)
# chain: MTFIKQMMPRYVASMTAGIVAAAMAATCAFAPVANADAVSPTQETIQSTGRHFMVYYRAWRDVTMKGVNTDLPDDNWISMYDIPYGVDVVNIFSYVPSGQEEQAQPFYDKLKSDYAPYLHSRGIKLVRGIDYTGVAVNGFRTFMKEQNKTESEATEADYDAYAKQVIDKYMISVGLDGLDIDMQAHPNDADVKISDNVIRALSKHIGPKSAKPDTTMFLYDTNGSYLNPFKNVAECFDYVAYQQYGSSSDRTARAAADYQPYIGNEFVPGLTFPEEGDMNNRWYDATEPYEESHFYQVASYVREHNLGGMFVYALDRDGRNYDEDLRRIVPSNLLWTKTAIAESEGMALDTAKTAANHYLDRMSLRQVIDDNAASADKARDMVGKAANLYETNKAVLGGDYGEGFSNTYDPTLEAGLLGIDISVLQQQIDKSSEIIGADTAESDAKTALRMARDAAIDGLTGKIYTADQVSAWSQALKAALDATVPVPTPDSTDQNGNRDKVTNHKVQGQPKQLSATGISTDIIVAVGVTLAIAGVALSLSRKLS
# Legend:
# Experiment in all cases: glycan array binding signal (z-score within array); higher = stronger binding
# Details in all cases: glycan notation: IUPAC condensed, linker removed
# [1] = molecular target: GlcNAc(b1-3)Gal(b1-4)GlcNAc(b1-3)GalNAc
# Summary of the method: (§1)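 Glycan array binding is given as a within-array Z-score, which can be read as non-binding when negative. The arrays, 3228 of them, came from the Consortium for Functional Glycomics database and were retained only where the protein sequence was available. Z-scores were averaged across arrays of the same protein sequence at different concentrations or buffers and across linkers.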
# [2] = molecular target: GlcNAc(b1-3)Gal(b1-4)GlcNAc(b1-3)[GlcNAc(b1-3)Gal(b1-4)GlcNAc(b1-3)]GalNAc
# Summary of the method: as §1
# [3] = molecular target: GlcNAc(b1-3)Gal(b1-4)GlcNAc(b1-6)[Gal(b1-3)]GalNAc
# Summary of the method: as §1
# [4] = molecular target: GlcNAc(b1-3)Gal(b1-4)GlcNAc(b1-6)[GlcNAc(b1-3)Gal(b1-3)]GalNAc
# Summary of the method: as §1
# [5] = molecular target: GlcNAc(b1-3)Gal(b1-4)GlcNAc(b1-6)[GlcNAc(b1-3)]Gal(b1-4)GlcNAc
# Summary of the method: as §1
# GlcNAc(b1-3)GalNAc = molecular target: GlcNAc(b1-3)GalNAc
# Summary of the method: as §1
# GlcNAc(b1-3)Man = molecular target: GlcNAc(b1-3)Man
# Summary of the method: as §1
# [6] = molecular target: GlcNAc(b1-3)[GlcNAc(b1-4)][GlcNAc(b1-6)]GlcNAc
# Summary of the method: as §1
# [7] = molecular target: GlcNAc(b1-3)[GlcNAc(b1-6)]Gal(b1-4)GlcNAc
# Summary of the method: as §1
# [8] = molecular target: GlcNAc(b1-3)[GlcNAc(b1-6)]GalNAc
# Summary of the method: as §1
# [9] = molecular target: GlcNAc(b1-4)Gal(b1-4)GlcNAc
# Summary of the method: as §1
# GlcNAc(b1-4)GlcNAc = molecular target: GlcNAc(b1-4)GlcNAc
# Summary of the method: as §1
# [10] = molecular target: GlcNAc(b1-4)GlcNAc(b1-4)GlcNAc
# Summary of the method: as §1
# [11] = molecular target: GlcNAc(b1-4)GlcNAc(b1-4)GlcNAc(b1-4)GlcNAc(b1-4)GlcNAc
# Summary of the method: as §1
# [12] = molecular target: GlcNAc(b1-4)GlcNAc(b1-4)GlcNAc(b1-4)GlcNAc(b1-4)GlcNAc(b1-4)GlcNAc
# Summary of the method: as §1
# [13] = molecular target: GlcNAc(b1-4)[GlcNAc(b1-6)]GalNAc
# Summary of the method: as §1
# [14] = molecular target: GlcNAc(b1-6)Gal(b1-4)GlcNAc
# Summary of the method: as §1
# GlcNAc(b1-6)GalNAc = molecular target: GlcNAc(b1-6)GalNAc
# Summary of the method: as §1
# [15] = molecular target: GlcNAc6S(b1-3)Gal(b1-4)GlcNAc
# Summary of the method: as §1
# Kdn(a2-3)Gal(b1-3)GalNAc = molecular target: Kdn(a2-3)Gal(b1-3)GalNAc
# Summary of the method: as §1
# Kdn(a2-3)Gal(b1-3)GlcNAc = molecular target: Kdn(a2-3)Gal(b1-3)GlcNAc
# Summary of the method: as §1
# Kdn(a2-3)Gal(b1-4)Glc = molecular target: Kdn(a2-3)Gal(b1-4)Glc
# Summary of the method: as §1
# Kdn(a2-3)Gal(b1-4)GlcNAc = molecular target: Kdn(a2-3)Gal(b1-4)GlcNAc
# Summary of the method: as §1
# [16] = molecular target: Kdn(a2-3)Gal(b1-4)[Fuc(a1-3)]GlcNAc
# Summary of the method: as §1
# Kdn(a2-6)Gal(b1-4)GlcNAc = molecular target: Kdn(a2-6)Gal(b1-4)GlcNAc
# Summary of the method: as §1
# [17] = molecular target: Man(a1-2)Man(a1-2)Man(a1-3)Man
# Summary of the method: as §1
# [18] = molecular target: Man(a1-2)Man(a1-2)Man(a1-6)[Man(a1-3)]Man
# Summary of the method: as §1
# Man(a1-2)Man(a1-3)Man = molecular target: Man(a1-2)Man(a1-3)Man
# Summary of the method: as §1
# [19] = molecular target: Man(a1-2)Man(a1-3)[Man(a1-2)Man(a1-6)]Man
# Summary of the method: as §1
# [20] = molecular target: Man(a1-2)Man(a1-3)[Man(a1-2)Man(a1-6)]Man(a1-6)[Man(a1-2)Man(a1-2)Man(a1-3)]Man
# Summary of the method: as §1
binder,measurement,setting,value
B1,glycan array binding signal (z-score),[1],-0.082
same,glycan array binding signal (z-score),[2],-0.083
same,glycan array binding signal (z-score),[3],-0.043
same,glycan array binding signal (z-score),[4],-0.059
same,glycan array binding signal (z-score),[5],-0.08
same,glycan array binding signal (z-score),GlcNAc(b1-3)GalNAc,-0.096
same,glycan array binding signal (z-score),GlcNAc(b1-3)Man,-0.071
same,glycan array binding signal (z-score),[6],-0.054
same,glycan array binding signal (z-score),[7],-0.033
same,glycan array binding signal (z-score),[8],-0.055
same,glycan array binding signal (z-score),[9],-0.052
same,glycan array binding signal (z-score),GlcNAc(b1-4)GlcNAc,-0.054
same,glycan array binding signal (z-score),[10],-0.097
same,glycan array binding signal (z-score),[11],-0.064
same,glycan array binding signal (z-score),[12],-0.052
same,glycan array binding signal (z-score),[13],-0.043
same,glycan array binding signal (z-score),[14],-0.061
same,glycan array binding signal (z-score),GlcNAc(b1-6)GalNAc,-0.094
same,glycan array binding signal (z-score),[15],-0.073
same,glycan array binding signal (z-score),Kdn(a2-3)Gal(b1-3)GalNAc,-0.082
same,glycan array binding signal (z-score),Kdn(a2-3)Gal(b1-3)GlcNAc,-0.089
same,glycan array binding signal (z-score),Kdn(a2-3)Gal(b1-4)Glc,-0.054
same,glycan array binding signal (z-score),Kdn(a2-3)Gal(b1-4)GlcNAc,-0.074
same,glycan array binding signal (z-score),[16],-0.076
same,glycan array binding signal (z-score),Kdn(a2-6)Gal(b1-4)GlcNAc,-0.092
same,glycan array binding signal (z-score),[17],-0.046
same,glycan array binding signal (z-score),[18],-0.034
same,glycan array binding signal (z-score),Man(a1-2)Man(a1-3)Man,-0.086
same,glycan array binding signal (z-score),[19],-0.065
same,glycan array binding signal (z-score),[20],-0.095

# Reference: the supplement of paper PMC8728848
